According to publication PMC4336329 (PLoS ONE, 2015):
Out of some 310,000 compounds screened, about 14,000 (4.5%) showed an effect of 50% or more. The effect is printed as a negative number. This is one part of the list.

target: human ether-à-go-go-related gene (hERG) potassium channel (human, UniProt Q12809); assay: primary screen, population patch clamp on CHO cells stably expressing hERG
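Note: peak tail current of the secondary pulse compared with the same well before compound.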

human ether-à-go-go-related gene (hERG) potassium channel, sequence (Q12809 whole entry, looked up): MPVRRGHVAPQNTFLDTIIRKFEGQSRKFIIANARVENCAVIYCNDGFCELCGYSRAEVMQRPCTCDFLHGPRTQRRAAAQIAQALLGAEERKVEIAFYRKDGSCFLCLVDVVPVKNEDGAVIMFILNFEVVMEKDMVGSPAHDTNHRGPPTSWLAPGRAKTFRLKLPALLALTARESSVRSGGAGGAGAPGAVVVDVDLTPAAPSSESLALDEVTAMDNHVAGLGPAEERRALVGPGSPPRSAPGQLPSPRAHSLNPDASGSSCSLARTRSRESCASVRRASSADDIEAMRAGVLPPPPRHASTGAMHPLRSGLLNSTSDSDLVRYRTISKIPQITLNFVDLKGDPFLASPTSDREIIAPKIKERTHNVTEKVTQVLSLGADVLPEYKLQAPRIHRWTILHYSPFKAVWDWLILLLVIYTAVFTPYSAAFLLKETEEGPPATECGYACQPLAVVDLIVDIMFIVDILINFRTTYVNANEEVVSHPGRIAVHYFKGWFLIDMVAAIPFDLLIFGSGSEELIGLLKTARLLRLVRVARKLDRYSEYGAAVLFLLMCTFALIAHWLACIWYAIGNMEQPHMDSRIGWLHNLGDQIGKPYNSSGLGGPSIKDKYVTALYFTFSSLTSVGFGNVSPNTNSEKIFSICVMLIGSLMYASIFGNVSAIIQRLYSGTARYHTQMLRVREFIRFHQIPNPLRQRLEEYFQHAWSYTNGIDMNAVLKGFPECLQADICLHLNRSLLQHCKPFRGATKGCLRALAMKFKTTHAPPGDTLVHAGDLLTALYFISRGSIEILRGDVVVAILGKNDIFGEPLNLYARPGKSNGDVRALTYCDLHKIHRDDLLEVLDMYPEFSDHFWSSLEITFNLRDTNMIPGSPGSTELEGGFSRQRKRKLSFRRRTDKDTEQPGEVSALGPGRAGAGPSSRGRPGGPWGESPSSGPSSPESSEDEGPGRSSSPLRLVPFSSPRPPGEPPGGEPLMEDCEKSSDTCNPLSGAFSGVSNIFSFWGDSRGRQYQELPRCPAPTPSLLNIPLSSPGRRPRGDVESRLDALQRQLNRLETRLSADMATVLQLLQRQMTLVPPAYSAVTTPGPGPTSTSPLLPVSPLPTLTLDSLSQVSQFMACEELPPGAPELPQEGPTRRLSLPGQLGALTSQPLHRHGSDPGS

Row | Structure (SMILES) | hERG current change (%, negative = inhibition) at 10uM
1 | COc1ccc(CN(CC(=O)NCC2CCCO2)C(=O)CCC(=O)Nc2nccs2)cc1 (centres unmarked) | 18.3%
2 | COc1ccc(C(=O)c2sc(Nc3ccccc3)nc2N)cc1OC | 15.9%
3 | COC(=O)c1ccccc1NC(=O)C(C)NS(=O)(=O)c1ccc(OC)cc1 (centres unmarked) | -10.4%
4 | O=C(Nc1nnc(C2=COCCO2)o1)c1cccc([N+](=O)[O-])c1 | 12.5%
5 | O=S(=O)(c1ccc(Br)cc1)N1CCC(c2nc3ccccc3[nH]2)CC1 | -21.5%
6 | O=C1CCCCC(=O)c2ccccc2N1 | 18.8%
7 | CCOC(=O)N1CCC2(CC1)C(C#N)=C(N)OC1=C2C(=O)CC(C)C1 (centres unmarked) | 6.73%
8 | CC(=O)C1=C(O)C(=O)N(c2cccnc2)C1c1ccc([N+](=O)[O-])cc1 (centres unmarked) | -11.6%
9 | CCN(CC(=O)N1CCOCC1)S(=O)(=O)c1ccc(C)cc1 | 7.66%
10 | CC(=O)NC12CC3CC(C1)CC(C(=O)NCC(=O)Nc1c(C)cc(C)cc1C)(C3)C2 | 10.2%
11 | S=C(NCc1ccco1)N1CCN(c2ccccn2)CC1 | -3.91%
12 | Nc1nncn1C(=O)c1c(Cl)cccc1Cl | -1.15%
13 | COc1ccc(F)cc1C(=O)C1CCCN(Cc2ccc(O)cc2)C1 (centres unmarked) | -52%
14 | O=C(OCCc1cc2ccccc2c(=O)o1)c1ccco1 | -10.5%
15 | O=C(NCC1CCCCC1)c1cc(Br)ccc1Cl | 2.12%
16 | COCc1c(C#N)c(NCCc2ccc(F)cc2)nc(C)c1[N+](=O)[O-] | 1.39%
17 | CCN(CC(=O)Nc1ccc(S(=O)(=O)N2CCCCC2)cc1)Cc1ccccc1 | -23.7%
18 | Cc1cccc(OCC(O)CN2CCN(CCN3C(=O)c4cccc5cccc(c45)C3=O)CC2)c1C (centres unmarked) | -35.7%
19 | Cn1c(SCC(N)=O)nnc1-c1ccccc1 | 0.601%
20 | Nc1nnn(CC(=O)N/N=C/c2ccc(Cl)cc2Cl)n1 | 8.17%
21 | Cc1ccc(S(=O)(=O)n2nc(-c3ccco3)nc2SCc2ccccc2)cc1 | 2.23%
22 | CCCSc1nnc(CSc2ncccn2)n1C | 4.49%

Row | Structure (SMILES) | hERG current change (%, negative = inhibition) at 10uM
23 | Cc1ccc(NS(=O)(=O)c2ccc(NC(=O)c3ccc(-c4ccccc4)cc3)cc2)c(C)c1 | 0.631%
24 | COc1cccc(C(=O)CC(=O)C(=O)Nc2ccc(C)cc2Cl)c1 | 7.53%
25 | COc1cccc(/C=C2\SC(=O)N(CCC(=O)NNC(=O)c3ccccc3Cl)C2=O)c1 | -2.44%
26 | Cc1cc2nc(SCC(=O)N(C)C)c3c(c2cc1C)CCCC3 | -8.59%
27 | O=C(NCCC1=CCCCC1)c1ccc(Cl)c(S(=O)(=O)N2CCCCC2)c1 | 2.87%
28 | COCCOC(=O)c1c(C)oc2ccc(OC(=O)c3c(OC)cccc3OC)cc12 | 11%
29 | CCOC(=O)C1CCN(S(=O)(=O)c2ccc3c(c2)CC(=O)N3C)CC1 | -22%
30 | O=C(CSc1nnc(CNc2ccc(F)cc2)o1)N1CCN(C(=O)c2ccco2)CC1 | -50.8%
31 | CC/C(=N\NC(=O)CSCc1ccc(Cl)cc1)c1ccc2c(c1)OCCO2 | 17.4%
32 | COc1ccc(CNCC(=O)Nc2ccccc2-n2cccc2)cc1.Cl | -15.6%
33 | COc1ccc(C(=O)Oc2cc(OC)cc(OC)c2C(C)=O)cc1 | -2.89%
34 | COc1cc2[nH]c3c(=O)n(N)c(=O)[nH]c3c2cc1OC | 14%
35 | O=C1OCCN/C1=C\C(=O)c1ccccc1 | 2.91%
36 | CN(C)c1ccc(C(C#N)c2ccccc2)nn1 (centres unmarked) | 34.5%
37 | COc1ccc(OC)c(CNC(=O)C2CCN(S(=O)(=O)N3CCC(C)CC3)CC2)c1 | -31.8%
38 | CNc1c(NS(=O)(=O)c2cc(Cl)ccc2OC)c(=O)oc2ccccc12 | 13.6%
39 | CCOC(=O)c1cc2c(ccn2C)n1CC(=O)N1CCC(C)CC1 | 4.25%
40 | N#Cc1cc(-c2ccccc2)nn1-c1ccccc1 | 15.1%
41 | Nc1nc(CSc2ncn[nH]2)nc(Nc2ccc(F)cc2)n1 | 6.74%
42 | CS(=O)(=O)c1ccc(C(=O)OCC(=O)N(CCc2ccccc2)Cc2ccccc2)cc1 | -11.6%
43 | O=C(Nc1cc(Cl)cc(Cl)c1)N1CCN(C(=O)C2CCCO2)CC1 (centres unmarked) | -26.4%
44 | COc1ccc(Cc2nc(-c3cccs3)no2)cc1OC | -5.46%
